Reference: publication PMC4336329 (PLoS ONE, 2015)
Out of some 310,000 compounds screened, about 2,200 (0.71%) showed an effect of 50% or more. Effects have a minus sign here. Some of the results follow.

These compounds were tested against human ether-à-go-go-related gene (hERG) potassium channel (human, UniProt Q12809) (assay: primary screen, population patch clamp on CHO cells stably expressing hERG).
Chain of human ether-à-go-go-related gene (hERG) potassium channel (Q12809 whole entry, looked up): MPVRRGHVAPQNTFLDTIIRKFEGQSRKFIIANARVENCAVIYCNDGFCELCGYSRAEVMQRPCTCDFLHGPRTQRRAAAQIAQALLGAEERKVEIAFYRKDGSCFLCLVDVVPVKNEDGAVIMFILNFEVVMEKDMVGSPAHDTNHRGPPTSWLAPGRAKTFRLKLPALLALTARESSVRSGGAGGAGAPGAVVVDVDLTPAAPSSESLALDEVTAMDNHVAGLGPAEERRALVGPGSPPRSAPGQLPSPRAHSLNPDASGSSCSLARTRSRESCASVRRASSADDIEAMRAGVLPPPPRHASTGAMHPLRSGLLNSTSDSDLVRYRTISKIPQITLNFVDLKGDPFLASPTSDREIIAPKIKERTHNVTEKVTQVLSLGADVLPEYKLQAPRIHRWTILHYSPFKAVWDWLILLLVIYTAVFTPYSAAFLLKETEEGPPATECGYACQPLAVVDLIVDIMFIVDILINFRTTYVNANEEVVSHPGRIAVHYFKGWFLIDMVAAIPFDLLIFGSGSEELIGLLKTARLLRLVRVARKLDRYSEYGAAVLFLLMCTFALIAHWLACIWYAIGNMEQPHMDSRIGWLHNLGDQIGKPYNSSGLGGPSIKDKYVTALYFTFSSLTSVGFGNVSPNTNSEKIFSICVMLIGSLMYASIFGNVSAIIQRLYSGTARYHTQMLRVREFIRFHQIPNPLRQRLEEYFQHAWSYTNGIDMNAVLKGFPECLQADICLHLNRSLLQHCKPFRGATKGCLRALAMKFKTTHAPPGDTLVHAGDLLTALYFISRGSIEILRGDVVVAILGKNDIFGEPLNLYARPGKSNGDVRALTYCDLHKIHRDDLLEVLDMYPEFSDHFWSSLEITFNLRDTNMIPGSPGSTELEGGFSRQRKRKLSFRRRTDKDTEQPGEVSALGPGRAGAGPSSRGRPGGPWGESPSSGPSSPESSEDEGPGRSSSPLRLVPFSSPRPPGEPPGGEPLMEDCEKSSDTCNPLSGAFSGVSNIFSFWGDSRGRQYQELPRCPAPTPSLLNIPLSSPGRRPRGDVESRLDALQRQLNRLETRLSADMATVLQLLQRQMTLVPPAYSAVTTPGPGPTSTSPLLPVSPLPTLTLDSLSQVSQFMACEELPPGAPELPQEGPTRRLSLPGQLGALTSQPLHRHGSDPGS

| SMILES | hERG current change (%, negative = inhibition) at 1uM |
| --- | --- |
| Cc1cccc(C)c1OC(=O)CN1C(=O)c2ccccc2C1=O | 16.4% |
| CN(CC(=O)Nc1ccccc1C(=O)N1CCCC1)S(=O)(=O)c1ccc(Br)cc1 | -4.28% |
| O=C(Nc1ccc(N2CCOCC2)c(Cl)c1)c1ccco1 | 7.93% |
| CCC(=O)N1C(=O)CCN(C(C)=O)c2ccccc21 | -0.334% |
| Cc1nnc(NC(=O)C2CC(=O)N(Cc3ccccc3)C2)s1 (stereo not shown) | 8.02% |
| CCSc1nc2c(c(=O)n1-c1ccc(F)cc1)SCC2 | 0.341% |
| Cc1ccc(OCC(=O)N(Cc2ccc(C)o2)C2CCS(=O)(=O)C2)cc1 (stereo not shown) | -26% |
| O=C1CC(NS(=O)(=O)c2cccs2)CN1c1cccc(F)c1 (stereo not shown) | 6.88% |
| CCOC(=O)c1cc(-c2csc(Nc3c(C)cc(C)cc3C)n2)on1 | 14.4% |
| COC(=O)[C@@H]1C[C@]2(C(=O)O)c3ccccc3N(OOSc3ccccc3)[C@@H]2N1C(=O)OC | 17.2% |
| Cc1ccc(CNC(=O)C2CCCN(S(=O)(=O)c3cnc[nH]3)C2)cc1 (stereo not shown) | 5.14% |
| CCCn1c(Nc2ccccc2C)nc2ccccc21 | 1.83% |
| C/C(=N\NC(=O)c1cc(Br)ccc1O)c1cccs1 | 15.2% |
| COc1ccccc1C(=O)NC(=O)COC(=O)c1ccco1 | 8.07% |
| Cc1ccc(C(=O)NCc2ccccn2)o1 | 12.8% |
| COc1cccc(C(=O)Nc2ccc3c(c2)C(=O)NC3=O)c1 | 3.17% |
| CCOC(=O)c1sc2nc(CSc3ccccc3)nc(N3CCC(C(N)=O)CC3)c2c1C | 22.7% |
| Cc1cc([N+](=O)[O-])cc(/C=N/n2c(C)nc3ccccc3c2=O)c1O | 3.92% |
| CCOC(=O)C1CCCN(C2CC(=O)N(c3ccccc3)C2=O)C1 (stereo not shown) | 3.24% |
| CC1=Nc2cc(C(=O)N3CCCC3)ccc2Sc2ccc(C)cc21 | 3.5% |
| COc1cc(OC)cc(-c2c(-c3cccs3)c3cc(-c4ccn[nH]4)ccc3n2C)c1 | 6.29% |
| COc1ccc(-c2csc(NC(=O)CSCC(=O)Nc3cc(C)on3)n2)cc1OC | 14.3% |

| SMILES | hERG current change (%, negative = inhibition) at 1uM |
| --- | --- |
| COc1ccc(/C=C/c2nc(S(=O)(=O)c3ccccc3)c(NCCCN(C)C)o2)cc1OC | -2.41% |
| CCCCNCCCCOc1ccccc1 | 16.3% |
| CC(C)c1nc2sc3c(=O)n(N)cnc3c2c2c1COC(C)(C)C2 | 9.7% |
| Clc1ccccc1OCCN1CCC(Cc2ccccc2)CC1.O=C(O)C(=O)O | 10.6% |
| COc1ccc(/C=N/NC(=O)CNS(=O)(=O)c2ccccc2)cc1 | 1.47% |
| CC(C(=O)Nc1nc2ccccc2s1)n1cc([N+](=O)[O-])cn1 (stereo not shown) | -39.6% |
| CCN(CC)S(=O)(=O)c1ccc(/C=C/C(=O)Nc2ccc(F)c(F)c2F)cc1 | 4.84% |
| CCC(=O)Nc1ccc(Cl)c(NC(=S)NC(=O)COc2ccc(Cl)cc2)c1 | 7.5% |
| Fc1ccccc1-c1n[nH]c(=S)n1C1CC1 | 15.2% |
| Cl.Fc1ccc(C(c2nnnn2Cc2ccco2)N2CCN(C3CCCCC3)CC2)cc1 (stereo not shown) | -46% |
| CCOC(=O)C(C)Sc1nc2ccccc2c(=O)n1CC (stereo not shown) | -2.85% |
| CCOC(CCNC(=O)c1cc(-c2cccs2)nc2ccccc12)OCC | 7.14% |
| CCn1c(N)c(C(=O)Nc2ccccc2C(=O)OC)sc1=S | 13.6% |
| COc1ccc(-c2nc(CS(=O)(=O)CC(=O)NCc3ccc4c(c3)OCO4)c(C)o2)cc1 | 11.6% |
| O=c1c2ccccc2nnn1Cc1nnc(-c2ccccc2Br)o1 | -0.697% |
| CCOC(=O)N1CCN(C(=O)Nc2ccccc2)CC1 | 6.12% |
| Cc1nn(C)cc1/C=N/NC(=O)Cn1nccc1C | 3.69% |
| N/C(=N\OC(=O)C1CCCCC1)c1ccc(Br)cc1 | -1.27% |
| CCC(CO)Oc1cc(NC(=O)c2cccc(Cl)c2)c2ncn(C(C)C)c2c1 (stereo not shown) | 13.9% |
| COC(=O)C1(C(=O)OC)NOC2C(=O)N(c3ccccc3)C(=O)C21 (stereo not shown) | 1.09% |
| COc1ccc(/C=C/c2nc(-c3ccccc3O)n[nH]2)cc1OC | 14.9% |
| CC(C)CC(=O)Nc1nnc(S(=O)(=O)N(C)c2ccc(Cl)cc2)s1 | 9.97% |

| SMILES | hERG current change (%, negative = inhibition) at 1uM |
| --- | --- |
| N/C(=N\OC(=O)c1cccc(F)c1)c1ccccn1 | 20.9% |
| Cc1cccc(C)c1OCc1cc(C(=O)N2CCCCCCC2)no1 | 12.3% |
| CN=c1scc(C)n1/N=C/c1ccc2c(c1)OCO2 | 13.8% |
| C=CCNC(=O)c1onc(CSc2ccc(F)cc2)c1C(=O)NCC=C | 1.73% |
| COc1ccc(NC(=O)C2CCCN(S(=O)(=O)c3cccc4cccnc34)C2)cc1OC (stereo not shown) | 4.52% |
| Cc1cccc(C)c1OCc1n[nH]c(=S)o1 | 11.5% |
| COc1cc(/C=C(/Sc2nnc(-c3ccc(F)cc3)o2)C(=O)O)ccc1OC(F)F | 14.2% |
| Cc1ccc(Cc2cnc(N3C(=N)SC(c4ccccc4)C3=O)s2)cc1 (stereo not shown) | 8.23% |
| COC(=O)Nc1ccc(S(=O)(=O)N2CCC(C(=O)N(C)C3CCCCC3)CC2)cc1 | 1.74% |
| CSCCNC(=O)c1ccc(OC2CCN(S(=O)(=O)N(C)C)CC2)cc1 | 6.09% |
| O=C(Cn1ncc(Cl)c(Cl)c1=O)NCC1CCCCC1 | -7.26% |
| O=C(/C=C\c1ccco1)Nc1ccc(N2CCN(C(=O)c3ccccc3)CC2)cc1 | -24.3% |
| COc1ccc(S(=O)(=O)N2CCOCC2)cc1NC(=O)CN(C)Cc1c(F)cccc1Cl | 0.297% |
| O=C(NCCS(=O)(=O)N1CCN(Cc2ccccc2)CC1)c1ccc(F)cc1 | -10.9% |
| Cc1cnc([N+](=O)[O-])n1CCOC(=O)NC(=O)c1ccccc1Cl | 8.43% |
| O=C(COC(=O)c1ccccc1C(=O)c1ccccc1)NCCc1ccccc1 | 0.415% |
| COc1ccc(C(=O)NC(=S)N(C)C2CCCCC2)cc1Br | 5.69% |
| CCCCN(C)C(=O)c1ccc2c(c1)N(CC)C(=O)c1ccccc1S2(=O)=O | 4.4% |
| CCCCCCn1c(O)c(C=NCCN2CCCCC2)c(=O)[nH]c1=O | -6.33% |
| Cc1ccc(C2(C)NC(=O)N(CC(=O)Nc3ccc4c(c3)OCO4)C2=O)cc1 (stereo not shown) | 4.69% |
| COc1ccc(S(=O)(=O)N2CCCCC2)cc1NC(=O)c1cccnc1SC | -0.883% |
| COc1ccc(OC)c(-n2nnnc2SCC(=O)Nc2cc(C)ccc2OC)c1 | 2.8% |

| SMILES | hERG current change (%, negative = inhibition) at 1uM |
| --- | --- |
| O=C(O)COc1ccc(/C=N/NC(=O)c2cn(-c3ccccc3)nc2-c2ccccc2)cc1 | 1.75% |
| CC(NS(=O)(=O)c1ccc(CCC(=O)N2CCN(C)CC2)cc1)c1ccccc1 (stereo not shown) | 12.3% |
| CCOc1ccc(-c2n[nH]c(C(=O)NN)c2C)cc1 | -2.92% |
| COc1ccc(-c2nn(-c3ccccc3)cc2C(=O)NC(=S)N2CCOCC2)cc1OC | 19% |
| CC1=C(C(=O)OC2CCCCCCC2)C(c2cc3c(cc2Br)OCO3)CC(=O)N1 (stereo not shown) | 11.4% |
| COc1cc(/C=N\NC(=O)CN2CCOCC2)ccc1OCC(=O)Nc1ccc(C)c(C)c1 | -6.87% |
| NS(=O)(=O)c1ccc(CNC(=O)C2CCCCC2)cc1 | 7.53% |
| NC(=O)C(c1ccc(Cl)cc1Cl)c1ncc(C(F)(F)F)cc1Cl (stereo not shown) | -14.4% |
| CCN(C(=O)CSc1nc(C)nc2sc(C)c(C)c12)C1CCS(=O)(=O)C1 (stereo not shown) | 1.59% |
| COc1ccc(-c2nc3c(c(SCC(=O)N4CCOCC4)n2)Cc2c(CO)cnc(C)c2O3)cc1 | 10.4% |
| C=CCOc1cccc(/C=N/NC(=O)CC(=O)NC2CCCCC2)c1 | 15.4% |
| COc1cccc(N(CC(=O)NC2CCCCC2)C(=O)CCCC(=O)Nc2ccccn2)c1 | 14% |
| COc1ccc(Nc2nc3ccccc3nc2NS(=O)(=O)c2ccc(NC(C)=O)cc2)cc1 | 16.5% |
| CCCCNC(=O)Nc1ccccc1C(=O)NCc1ccco1 | 4.3% |
| COc1cccc(Nc2nc(=O)[nH]nc2C)c1 | -8.25% |
| COCCN=c1scc(-c2ccc3c(c2)NC(=O)CO3)n1/N=C(\C)c1ccc(O)cc1 | -1.04% |
| CCOc1ccc(-c2cnc3n2CCCCC3)cc1 | -10.8% |
| C=CCn1c(SC2CCOC2=O)nc2sc(CC)cc2c1=O (stereo not shown) | -29.7% |
| O=P(c1ccccc1)(c1ccccc1)c1nc(-c2ccccc2)oc1NCc1ccccc1 | 1.11% |
| COc1ccc(CNC(=O)c2sc(=S)n(-c3ccc(OC)cc3)c2N)cc1 | -1.98% |
| COC(=O)C1=C(N)OC2=C(C(=O)CC(C)(C)C2)C1c1cccs1 (stereo not shown) | 7.7% |
| CCCCOc1ccc(C(=O)Nc2cccc(-n3cnnn3)c2)cc1OC | 8.07% |
